# The whole screen tested about 150,000 compounds, of which about 540 (0.36%) showed an effect of 50% or more. Some of the results follow.
# System: Plasmodium falciparum
# Assay: Primary screen in NF54 nanoGlo assay, in single point, at 2uM, 72h; a lower Z score goes with more inhibition
# Assay type: functional, Erythrocyte
# Details: timepoint 72 hour
Structure (SMILES),% Inhibition [%],Z score
CCc1nc(CN(C)Cc2cn(CCO)nc2C)no1,-4,0.52
CN1CC[C@@]2(CCC1=O)CN(C(=O)Nc1cccc(C#N)c1)CCN2C,-16,2.14
COC(=O)c1ccc(NCCOc2cccc3c2OC(C)(C)C3)nn1,-6,1.11
Cn1cc(Oc2ccccc2C(=O)Nc2ccc3c(c2F)CCNC3=O)cn1,-11,1.84
CC[C@@H](C(=O)n1nc(-c2ccccc2Cl)nc1N)c1ccccc1,-7,1.15
O=C(C1CCCCC1)N(CCN1CCOCC1)c1nc2ccc(F)cc2s1,-16,1.99
CN(c1ccn(C)n1)S(=O)(=O)CCCCS(=O)(=O)N1CCCC1,-3,0.4
CCC(C)[C@H](N)C(=O)N(C)Cc1ccccc1 (some centres undefined),0,0.01
CC(C)Oc1cnc(C(=O)NC[C@@H]2CC[C@H](C)N2C)cn1,-1,0.17
Cc1cc(N2C(=O)CCS2(=O)=O)cc(C)c1S(=O)(=O)NCc1ccccn1,34,-0.85
O=C(O)[C@H]1CCCN1C(=O)c1ccc(-c2ccccc2F)o1,-1,0.27
CN(Cc1cnccn1)S(=O)(=O)c1cccc2c1OC(C)(C)C2,-11,1.24
Cn1nc(-c2cccnc2)cc1CNS(C)(=O)=O,16,-2.02
Cn1c(=O)sc2cc(CNc3cccc(OCC(F)F)n3)ccc21,-1,0.07
COC[C@]1(O)CCOC2(CCN(Cc3ccc(C)cn3)CC2)C1,-11,1.59
Cc1ccc(OC2(C(=O)O)CCN(c3nccc4occc34)CC2)cn1,0,0.01
O=C(CCc1nnc2ccc(N3CCOCC3)nn12)N1CCCCC1,-19,1.82
Cc1cc(C(=O)N2CCC[C@H]2c2ccc3c(c2)OCCCO3)c(C)n1CC(F)(F)F,0,0.08
C[C@H](NC(=O)C(F)(F)c1ccccn1)c1cnn(C)c1,8,-1.19
CC1CN(C(=O)Cc2ccc(C(=O)O)cc2)C(c2ccccc2)CO1 (centres undefined),-19,2
Cc1cc(NC(=O)CCC(F)(F)F)nc(=O)[nH]1,-3,0.36

Structure (SMILES),% Inhibition [%],Z score
Cc1nn(Cc2nc(-c3ccc(C(C)C)cc3)no2)c(=O)c(C#N)c1C,-11,1.81
Cc1cccc2nc(C(=O)N(C)CC3(CO)CCOCC3)c(F)n12,-5,0.88
COC(=O)CN1CCN(C(=O)c2ccc3ccccc3n2)CC1=O,-5,0.94
COc1ccc(-n2nc3nc[nH]c(=O)c3n2)cc1,3,-0.46
CC(C)(C)c1nnc(C(=O)NC[C@@]2(c3ccccc3)CCCO2)o1,3,-0.53
Cc1csc(=O)n1CC(=O)N(C)CC1CCCC1,26,-2.92
CC(=O)N1CCC(CC(=O)N2C[C@@H](Oc3ccccc3)C[C@H]2C(=O)N2CCOCC2)CC1,-8,1.05
COCc1cc(N2CCc3ncnc(N(C)C)c3C2)n2ncnc2n1,-5,0.51
CCc1ncnc(N2C[C@H](O)C(C)(C)C2)c1F,-16,1.48
O=C(NCc1nccs1)c1ccc(-c2ccco2)[nH]c1=O,-2,0.15
Cc1cc(S(=O)(=O)N2CCc3cc4ccccc4nc32)ccc1F,-2,0.23
Cc1cc(Oc2ncccc2C#N)ccc1NC(=O)c1ccc2c(c1)OCO2,28,-3.76
O=C(Cn1nnc2ccccc21)N(Cc1nc(-c2ccccc2)cs1)C1(C(=O)Nc2ccc3c(c2)OCO3)CCCC1,-7,0.77
COc1cc(-c2ccc(CO)cc2CO)c(Cl)cn1,-5,0.97
Cn1nc(C(=O)N[C@H]2CCn3nccc3C2)ccc1=O,-11,1.76
CCc1ccc(F)cc1C(=O)N1CCN(CC(=O)Nc2nncs2)CC1,-4,0.72
O=C(Nc1cccc2ccccc12)c1ccc2c(c1)C(=O)N(c1cccc3ccccc13)C2=O,-1,0.17
CCOCCO/C(=N/C(=O)c1ccccc1F)NC[C@H]1CCCO1,3,-0.32
O=C1CN(Cc2cc(C#CCO)cs2)CCCN1,-11,1.59
C[C@H](NC(=O)c1cccc(Cl)c1Cl)C(=O)NC1(C(N)=O)CCCCC1,5,-0.58
CCCc1nc(C(=O)N2C[C@H](NC(C)=O)[C@@H](c3ccc(C)cc3)C2)cs1,1,-0.2
